{"source": "PubChem BioAssay AID686971", "about": "(National Center for Advancing Translational Sciences (NCATS), 2013)", "note": "Screen size: about 360,000 compounds; about 7,500 (2.1%) were called active. The shares of active, inactive and inconclusive entries below differ from those in the screen. The call rests on the fitted dose curve; in most records, active means well fitted cell-killing curve with a large enough effect; inconclusive means small, poorly fitted or top-dose-only effect, or effect the other way, or another doubt; inactive means no such curve, though single readings can be large or run the other way. Potencies of inconclusive entries are left out as doubtful fits. Potency means the concentration at half of the fitted maximal effect; tags describe the fitted curve by direction and shape.", "data": [{"test": "qHTS for induction of synthetic lethality in tumor cells producing 2HG: qHTS for the HT-1080-IDH1KD cell line;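 on activity, negative = toxicity: 0% = DMSO wells and -100% = cell-free medium wells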", "conditions": "HT-1080 IDH1 knockdown viability, ATP luminescence, 48 h; activity, negative = toxicity: at 46.1 µM (top of the series) unless noted", "how_it_was_run": "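IDH1KD HT-1080 cells, 750/well, RPMI + 5% FBS; compound pinned after 2 h settling; 48 h, 37 °C; CellTiter-Glo luminescence; % activity normalised to DMSO and no-cell wells; curves fitted, classed by r2 and efficacy.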", "values": [{"smiles": "O=S(=O)(N/N=C/c1ccc2c(c1)OCO2)c1ccc(Br)cc1", "Potency": "inactive"}, {"smiles": "CCCN(CC(=O)Nc1ccccc1C)C(=O)c1ccc2[nH]c3c(c2c1)CC(C)CC3", "note": "(configuration not stated)", "Potency": "inconclusive [cytotoxic, single point]"}, {"smiles": "CNCCCOc1cc(C)cc(C)c1C", "Potency": "inactive"}, {"smiles": "Cc1cc(NC(=O)CSc2nc3ccsc3c(=O)n2Cc2ccccn2)n[nH]1", "Potency": "inconclusive [cytotoxic, single point]"}, {"smiles": "CCCSc1nnc(NC(=O)Nc2ccc(F)cc2)s1", "Potency": "active: 11.6 µM"}, {"smiles": "CO[C@@H]1CN(C)C(=O)c2cc(NC(=O)Nc3ccc4c(c3)OCO4)ccc2OC[C@@H](C)N(C)C[C@H]1C", "Potency": "inactive"}, {"smiles": "Cc1ccc(OCc2nnc(SCC(=O)Nc3cccc4ccccc34)n2-c2ccccc2)cc1", "Potency": "inactive"}, {"smiles": "Cc1ccc(S(=O)(=O)NCCC(=O)Nc2ccc(Cl)c(Cl)c2)cc1", "activity, negative = toxicity": "inconclusive: -32.3% [cytotoxic]"}, {"smiles": "COc1ccc(/C=C/C(O)=C2/C(=O)NC3(C)CC2c2ccccc2O3)c(OC)c1OC", "note": "(configuration not stated)", "Potency": "inconclusive [cytotoxic, single point]"}, {"smiles": "COc1c(Cl)cc(C(=O)NN)cc1Cl", "Potency": "active: 2.59 µM"}, {"smiles": "C=CCn1c2ccccc2c2nnc(SCN3C(=O)c4ccccc4C3=O)nc21", "Potency": "inactive"}, {"smiles": "CC(=O)n1cc(N(C(=O)CCl)c2ccc(C)cc2)c2ccccc21", "Potency": "active: 2.91 µM"}, {"smiles": "CC(=NNC(=S)N1CC2CCC(CC2)C1)c1cnccn1", "Potency": "inconclusive [cytotoxic, full curve]"}, {"smiles": "C=CCN(C(=O)CSC1=NC(=O)CN1C(C)=O)c1nc(C)c(-c2ccccc2)s1", "Potency": "inconclusive [cytotoxic, single point]"}, {"smiles": "Cc1cccc(OCCCC(=O)NNC(=O)c2ccccn2)c1", "Potency": "inconclusive [cytotoxic, partial curve]"}, {"smiles": "COc1ccc(CNc2ncc(-c3ccc(F)cc3)n2C)c2ccccc12", "Potency": "inconclusive [cytotoxic, single point]"}, {"smiles": "CNC(=O)CSc1nc2ccccc2c(=O)n1CCc1ccccc1", "Potency": "inactive"}, {"smiles": "CCc1ccc(N2CC(C(=O)Nc3ccccc3N3CCCC3)CC2=O)cc1", "note": "(configuration not stated)", "Potency": "inconclusive [cytotoxic, single point]"}, {"smiles": "Cc1c(C(=O)OCCOC(C)C)[nH]c2c1C(=O)CC(c1ccco1)C2", "note": "(configuration not stated)", "Potency": "active: 0.326 µM"}, {"smiles": "Cc1nc(NC(=O)/C=C/c2ccccc2)sc1C(=O)Nc1ccccc1", "Potency": "inconclusive [cytotoxic, single point]"}, {"smiles": "S=C(NCCc1ccccc1)N1CCC2CC1c1cc(-c3ccc4c(c3)OCO4)ccc12", "note": "(configuration not stated)", "Potency": "inconclusive [cytotoxic, partial curve]"}, {"smiles": "COc1ccc(/C=C/C(=O)C2CC2)cc1Cn1nc(C)c([N+](=O)[O-])c1C", "Potency": "inconclusive [cytotoxic, single point]"}, {"smiles": "NC(CCc1ccccc1)c1csc(NC(=O)NCC2CCCCC2)n1", "note": "(configuration not stated)", "Potency": "inconclusive [cytotoxic, single point]"}, {"smiles": "Cc1ccc(C)c(NS(=O)(=O)c2cc(C(=O)Nc3cccc(N(C)S(C)(=O)=O)c3)ccc2C)c1", "Potency": "inconclusive [cytotoxic, single point]"}, {"smiles": "O=C(N/N=C/c1ccc(F)cc1)c1cc[n+]([O-])cc1", "Potency": "inactive"}, {"smiles": "CN(Cc1ccccc1)C(=O)COC(=O)c1ccc(=O)n(Cc2ccccc2)n1", "Potency": "inactive"}, {"smiles": "CC1(C2CCC3C4CCC5CC6(CCC5(C)C4C(=O)CC32C)OCCO6)OCCO1", "note": "(configuration not stated)", "Potency": "inactive"}, {"smiles": "NS(=O)(=O)c1ccc(N2N=C(c3ccccc3)CC2c2cccc(Cl)c2)cc1", "note": "(configuration not stated)", "Potency": "inconclusive [cytotoxic, single point]"}, {"smiles": "COc1cccc(CC2(CO)CCCN(Cc3[nH]c4ccc(C)cc4c3C)C2)c1", "note": "(configuration not stated)", "Potency": "inconclusive [cytotoxic, single point]"}, {"smiles": "Cn1nc(N)nc1N1CCN(c2ccc(F)cc2)CC1", "Potency": "inactive"}, {"smiles": "COc1ccc2c(c1OC)C(=O)N(c1ccc(F)cc1)C2", "Potency": "inconclusive [rising, partial curve]"}, {"smiles": "OCCN(CCO)c1ccc(C(c2ccccc2Cl)c2ccc(N(CCO)CCO)cc2Cl)c(Cl)c1", "Potency": "inconclusive [cytotoxic, single point]"}, {"smiles": "CCCc1c(-c2ccc(F)cc2)ncn1CCc1ccccc1OC", "Potency": "inconclusive [cytotoxic, single point]"}, {"smiles": "O=C(NN=Cc1ccccc1O)C(O)(c1ccccc1)c1ccccc1", "Potency": "inconclusive [cytotoxic, partial curve]"}, {"smiles": "Nc1c(C(=O)NCCN2CCOCC2)c2nc3ccccc3nc2n1CCc1ccccc1F", "Potency": "inconclusive [cytotoxic, single point]"}, {"smiles": "COC(=O)C1=C(C)N(Cc2ccccc2)C(=NCCN2CCOCC2)N[C@H]1CCc1ccccc1", "Potency": "inactive"}, {"smiles": "Cc1ccc(S(=O)(=O)N2CCN(C(=O)c3cc(S(=O)(=O)N4CCOCC4)ccc3Cl)CC2)c(C)c1", "Potency": "inactive"}, {"smiles": "c1csc(Cc2nn3c(-c4n[nH]c5c4CCC5)nnc3s2)c1", "Potency": "inconclusive [cytotoxic, single point]"}, {"smiles": "CCN1CCN(Cc2ccc(NC(=O)c3ccc(C)c(NC(=O)C[C@@H]4NC(=O)[C@H](Cc5ccccc5)NC4=O)c3)cc2C(F)(F)F)CC1", "Potency": "inactive"}, {"smiles": "CC(=O)c1c(C)[nH]c(C(=O)N2CCN(c3cc(Cl)ccc3C)CC2)c1C", "Potency": "active: 23.1 µM"}, {"smiles": "CC1Nc2ccccc2C(=O)N1NS(C)(=O)=O", "note": "(configuration not stated)", "Potency": "inconclusive [rising, partial curve]"}, {"smiles": "CC(C)(C)/C(COc1ccccc1[N+](=O)[O-])=N/O", "Potency": "inactive"}, {"smiles": "CN1CCCN(S(=O)(=O)c2cccc(Cl)c2Cl)CC1", "Potency": "inactive"}, {"smiles": "CNc1nc(Sc2ccc(C)cc2)cc(C(F)(F)F)n1", "Potency": "inconclusive [cytotoxic, single point]"}, {"smiles": "CN(C)CCCNc1oc(-c2ccccc2Cl)nc1S(=O)(=O)c1ccc(F)cc1", "Potency": "inconclusive [cytotoxic, partial curve]"}, {"smiles": "CCn1c(NCc2cc(Cl)ccc2O)nc2ccccc21", "Potency": "inconclusive [cytotoxic, single point]"}, {"smiles": "O=c1cc(C(F)(F)F)[nH]c2ccc(C(F)(F)F)cc12", "Potency": "inconclusive [cytotoxic, partial curve]"}, {"smiles": "COc1ccc(C#Cc2cccc(-c3nc(C(=O)NCCCN4CCOCC4)cc4c3[C@H](CCO)N(S(=O)C(C)(C)C)C4)c2)cc1OC", "note": "(some centres not stated)", "Potency": "inconclusive [cytotoxic, single point]"}, {"smiles": "Oc1ccccc1C=NNC(=S)NC1CC2C=CC1C2", "note": "(configuration not stated)", "Potency": "inconclusive [cytotoxic, single point]"}, {"smiles": "COc1cc(-c2cc(C(=O)N3CCCCCC3)c3ccccc3n2)cc(OC)c1OC", "activity, negative = toxicity": "inconclusive: 32.8%"}, {"smiles": "CC1(C)C=Cc2c(c3c(c4c(=O)c(-c5ccc(O)cc5)coc24)OC(C)(C)CC3)O1", "Potency": "inconclusive [cytotoxic, single point]"}, {"smiles": "CNc1nc(OCC#N)nc(N2CCCCC2)n1", "Potency": "inactive"}, {"smiles": "CC(C)(C)n1nnnc1C(c1ccccn1)N(Cc1ccccc1)Cc1ccc(Cl)cc1", "note": "(configuration not stated)", "Potency": "inconclusive [cytotoxic, single point]"}, {"smiles": "CCc1nc2ccc(C(=O)Nc3cccc(NS(C)(=O)=O)c3)cn2c1N(CCC(C)C)CCN(C)C", "Potency": "inconclusive [cytotoxic, single point]"}, {"smiles": "CSc1ccccc1NC(=O)Nc1ccc(Cl)cc1", "Potency": "inconclusive [cytotoxic, partial curve, poor fit]"}, {"smiles": "CN(C)c1ccc(/C=C/c2nc3ccccc3s2)cc1", "Potency": "inconclusive [cytotoxic, partial curve]"}, {"smiles": "OC(COc1ccc2cc(Br)ccc2c1)CN1CCOCC1", "note": "(configuration not stated)", "Potency": "inconclusive [cytotoxic, single point]"}, {"smiles": "COc1ccc(C(C(=O)NC(C)(C)C)n2c(-c3ccc(=O)[nH]c3)nc3ccccc32)cc1", "note": "(configuration not stated)", "Potency": "active: 8.2 µM"}, {"smiles": "N#CC[C@H](Cc1ccccc1)N1CC[C@@H](NC(=O)OCc2ccccc2)CCC1=O", "Potency": "inactive"}, {"smiles": "COc1cc2c(cc1OC)[C@H](Cc1ccc(O)cc1)NCC2", "Potency": "inactive"}, {"smiles": "COC(=O)c1c(C)[nH]c(C=Nc2ccc(OC)cc2)c1C", "Potency": "inconclusive [cytotoxic, partial curve]"}, {"smiles": "Cc1ccc(S(=O)(=O)CCCS(=O)(=O)c2ccc(C)cc2)cc1", "Potency": "inactive"}, {"smiles": "COc1ccc(C)cc1NC(=O)c1nnn(Cc2cccc(F)c2)c1N", "Potency": "active: 4.11 µM"}, {"smiles": "O=S(=O)(c1ccc2nc(Cc3ccccc3)[nH]c2c1)N1CCOCC1", "activity, negative = toxicity": "inactive: -2.66% [at 9.24 µM]"}, {"smiles": "N#CCSc1nc2c(sc(=S)n2Cc2ccco2)c(=O)n1-c1ccc(F)cc1", "Potency": "inconclusive [cytotoxic, single point]"}, {"smiles": "Cc1cccc(OCc2nnc(SCC(=O)N3CCCCC3)o2)c1", "Potency": "inactive"}, {"smiles": "Cc1ccc(S(=O)(=O)NCCc2nnc3ccc(SCC(=O)Nc4nc(C)cs4)nn23)cc1", "Potency": "inactive"}, {"smiles": "Cc1ccc(-c2noc(CN(C(=O)c3ccc4c(c3)OCO4)C(C)C)n2)cc1", "Potency": "inactive"}, {"smiles": "COc1ccc(CNC(=O)c2cccc(NC(=O)c3ccccc3)c2)cc1", "Potency": "inactive"}, {"smiles": "O=C(NCCc1ccco1)C(=O)NCC1CCCN1S(=O)(=O)c1ccccc1", "note": "(configuration not stated)", "Potency": "inconclusive [cytotoxic, single point]"}, {"smiles": "COc1ccc2[nH]c(=O)c(CN(Cc3cccs3)S(=O)(=O)c3c(C)ccc4nsnc34)cc2c1", "Potency": "inconclusive [cytotoxic, single point]"}, {"smiles": "COc1ccc(C=NNC(=O)NN=Cc2ccc(OC)c(OC)c2)cc1OC", "Potency": "inconclusive [cytotoxic, partial curve]"}]}]}
